{"source": "patent US11712429B2", "about": "“Low eructation composition and methods for treating and/or preventing cardiovascular disease in a subject with fish allergy/hypersensitivity” (Amarin Pharmaceuticals Ireland Limited, priority 2010, dated 2023)", "conditions": "human, in vivo, 6 months"}
{"compound": "CC/C=C\\C/C=C\\C/C=C\\C/C=C\\C/C=C\\CCCC(=O)OCC", "note": "[AMR101, all-cis eicosa-5,8,11,14,17-pentaenoic acid ethyl ester]", "values": [{"measurement": "red blood cell content of 20:5n3 (EPA), mean", "value": 3.07, "unit": "%"}]}
